Test results as given in US20200085917A1 (UNIVERSITY OF PITTSBURGH OF THE COMMONWEALTH SYSTEM OF …, published 2020).

How the values were obtained:
Test in all cases: GST pull-down, LC-MS/MS
Acsl6_IPI:IPI00123390.8 = target: T1, Acsl6_IPI:IPI00123390.8 (mouse, UniProt Q91WC3 1-697, limits assumed)
T1 sequence (looked up): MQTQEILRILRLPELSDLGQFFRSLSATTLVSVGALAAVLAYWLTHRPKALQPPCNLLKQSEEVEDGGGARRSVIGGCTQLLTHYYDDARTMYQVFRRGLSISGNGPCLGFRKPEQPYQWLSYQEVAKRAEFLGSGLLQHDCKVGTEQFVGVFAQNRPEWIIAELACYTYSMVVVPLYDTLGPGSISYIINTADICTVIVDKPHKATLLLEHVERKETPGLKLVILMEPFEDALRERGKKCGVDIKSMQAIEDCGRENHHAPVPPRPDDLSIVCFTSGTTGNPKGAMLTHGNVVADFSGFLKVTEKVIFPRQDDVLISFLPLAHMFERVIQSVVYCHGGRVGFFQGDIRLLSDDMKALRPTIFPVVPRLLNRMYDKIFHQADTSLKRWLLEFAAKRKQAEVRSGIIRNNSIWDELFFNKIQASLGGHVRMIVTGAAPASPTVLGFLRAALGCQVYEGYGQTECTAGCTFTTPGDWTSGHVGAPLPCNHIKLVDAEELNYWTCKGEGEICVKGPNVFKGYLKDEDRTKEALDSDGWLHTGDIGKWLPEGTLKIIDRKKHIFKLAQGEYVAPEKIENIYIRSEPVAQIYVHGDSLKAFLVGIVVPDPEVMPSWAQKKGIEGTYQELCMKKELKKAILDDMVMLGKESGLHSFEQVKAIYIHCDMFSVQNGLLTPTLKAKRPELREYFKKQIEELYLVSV
Description: (§1) Extracts were spun at 14,000 r.p.m. at 4° C., and clarified supernatants were incubated with glutathione 4B Sepharose beads (GE Healthcare) at 4° C. overnight. The glutathione beads were then washed extensively with ice-cold TNE buffer, and bound proteins were subjected to SDS-PAGE followed by immunoblotting analysis. For the samples subjected to mass spectrometry, glutathione bead-bound proteins from equal amounts (600 μg) of mitochondria were further washed with high stringency RIPA buffer following TNE buffer wash to decrease nonspecific interaction. Proteins were then eluted from the glutathione beads in SDS sample buffer, separated by SDS-PAGE and stained with Coomassie. Proteins in the gel were digested with trypsin and analyzed by mass spectrometry (LC-MS/MS) at the Taplin Biological Mass Spectrometry Facility (Harvard Medical School, Boston, Mass.).

Ywhaq_IPI:IPI00408378.4 = target: T2, Ywhaq_IPI:IPI00408378.4 (mouse, UniProt P68254 1-245)
T2 sequence (looked up): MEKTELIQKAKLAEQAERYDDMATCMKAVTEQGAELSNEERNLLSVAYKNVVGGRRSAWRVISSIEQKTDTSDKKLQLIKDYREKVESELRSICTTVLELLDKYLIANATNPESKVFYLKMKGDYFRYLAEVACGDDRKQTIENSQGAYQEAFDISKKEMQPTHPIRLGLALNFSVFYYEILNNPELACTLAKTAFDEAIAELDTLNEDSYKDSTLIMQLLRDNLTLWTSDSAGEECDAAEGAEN
Description: as §1

[1] = target: T3, Nipsnap1_IPI:IPI00115824.1 (mouse, UniProt O55125 36-284)
T3 sequence (looked up): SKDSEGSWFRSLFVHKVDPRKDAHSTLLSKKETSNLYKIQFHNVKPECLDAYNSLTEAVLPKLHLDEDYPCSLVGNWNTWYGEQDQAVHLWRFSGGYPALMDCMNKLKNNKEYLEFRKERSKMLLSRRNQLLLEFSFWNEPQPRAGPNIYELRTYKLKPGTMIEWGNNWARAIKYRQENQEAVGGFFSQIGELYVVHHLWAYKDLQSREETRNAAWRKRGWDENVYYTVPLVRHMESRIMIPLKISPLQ
Description: as §1

[2] = target: T4, Slc25a19_IPI:IPI00118826.1 (mouse, UniProt Q9DAM5 1-318)
T4 sequence (looked up): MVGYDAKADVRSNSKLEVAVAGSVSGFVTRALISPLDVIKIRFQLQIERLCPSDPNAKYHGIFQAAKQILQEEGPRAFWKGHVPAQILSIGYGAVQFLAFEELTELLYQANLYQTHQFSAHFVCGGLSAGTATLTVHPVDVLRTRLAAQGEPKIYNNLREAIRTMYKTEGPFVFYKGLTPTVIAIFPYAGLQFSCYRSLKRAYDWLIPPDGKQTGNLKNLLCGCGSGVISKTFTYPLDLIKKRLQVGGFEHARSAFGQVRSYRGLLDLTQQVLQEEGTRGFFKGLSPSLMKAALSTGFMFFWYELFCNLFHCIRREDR
Description: as §1

[3] = target: T5, Mthfd1l_IPI:IPI00228113.5 (mouse, UniProt Q3V3R1 32-977)
T5 sequence (looked up): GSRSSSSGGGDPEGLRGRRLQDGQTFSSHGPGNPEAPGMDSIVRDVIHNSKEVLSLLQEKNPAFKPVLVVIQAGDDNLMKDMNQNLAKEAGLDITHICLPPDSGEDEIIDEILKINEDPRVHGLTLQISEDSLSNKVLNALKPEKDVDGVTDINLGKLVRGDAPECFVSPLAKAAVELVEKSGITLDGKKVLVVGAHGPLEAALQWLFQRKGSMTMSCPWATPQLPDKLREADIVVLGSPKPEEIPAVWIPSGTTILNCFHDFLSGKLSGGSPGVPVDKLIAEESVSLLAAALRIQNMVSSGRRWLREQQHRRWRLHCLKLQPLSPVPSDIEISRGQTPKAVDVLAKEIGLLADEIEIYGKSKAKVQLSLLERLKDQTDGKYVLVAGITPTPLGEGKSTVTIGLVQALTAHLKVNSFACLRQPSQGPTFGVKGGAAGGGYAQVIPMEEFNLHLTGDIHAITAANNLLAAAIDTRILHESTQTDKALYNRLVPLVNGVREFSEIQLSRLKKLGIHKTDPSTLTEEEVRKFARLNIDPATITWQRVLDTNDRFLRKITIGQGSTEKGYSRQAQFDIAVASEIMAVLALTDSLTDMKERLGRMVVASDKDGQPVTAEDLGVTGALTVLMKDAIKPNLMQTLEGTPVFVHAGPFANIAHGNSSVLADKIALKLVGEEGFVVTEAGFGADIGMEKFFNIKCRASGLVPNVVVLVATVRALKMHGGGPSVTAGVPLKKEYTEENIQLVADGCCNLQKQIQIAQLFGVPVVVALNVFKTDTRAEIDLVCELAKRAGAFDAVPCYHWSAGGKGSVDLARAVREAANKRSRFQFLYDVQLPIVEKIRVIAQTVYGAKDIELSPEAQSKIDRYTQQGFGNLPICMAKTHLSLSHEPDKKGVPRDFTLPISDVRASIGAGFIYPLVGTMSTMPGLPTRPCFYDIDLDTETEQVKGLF
Description: as §1

Measured: binding result

B1: GST alone (other)
chain: not shown
notes: Negative control of the pull-downs; also called control GST
no binding: all assays above
